# Screen size: about 370,000 compounds; about 150 (0.041%) were called active. The shares of active, inactive and inconclusive entries below differ from those in the screen. Calls come from the whole dose curve; as a rule, active = well fitted inhibition curve with a large enough effect; inconclusive = small, poorly fitted or top-dose-only effect; inactive = flat fitted curve, though single readings scatter. Potencies of inconclusive entries are left out as doubtful fits.
# Biological target: Beta-lactamase (Escherichia coli (strain K12)) (UniProt P00811)
# Experiment: qHTS Inhibitors of AmpC Beta-Lactamase (assay with detergent); note: nearly all actives have a fitted effect of over 25% in size;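 for activity change, negative = inhibition: 0% = no-compound wells and -100% = no-enzyme wells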
# Settings: AmpC hydrolysis of nitrocefin, absorbance 480 nm, 0.01% Triton; activity change, negative = inhibition: at 114 µM (top of the series)
# How it was run: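 20 mM phosphate pH 7.0 + 0.01% (detergent screen) or 0.0001% Triton X-100; 5.3 nM AmpC reagent; cpd preinc 15 min RT; nitrocefin (800 uM stock) to start; A480 q20 s × 4 min; Activity was normalised to no-enzyme and no-compound control wells.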
# Potency is the fitted concentration of half-maximal effect; tags give direction and shape of the fitted curve.
# Sequence of UniProt P00811 (P00811 whole entry, looked up): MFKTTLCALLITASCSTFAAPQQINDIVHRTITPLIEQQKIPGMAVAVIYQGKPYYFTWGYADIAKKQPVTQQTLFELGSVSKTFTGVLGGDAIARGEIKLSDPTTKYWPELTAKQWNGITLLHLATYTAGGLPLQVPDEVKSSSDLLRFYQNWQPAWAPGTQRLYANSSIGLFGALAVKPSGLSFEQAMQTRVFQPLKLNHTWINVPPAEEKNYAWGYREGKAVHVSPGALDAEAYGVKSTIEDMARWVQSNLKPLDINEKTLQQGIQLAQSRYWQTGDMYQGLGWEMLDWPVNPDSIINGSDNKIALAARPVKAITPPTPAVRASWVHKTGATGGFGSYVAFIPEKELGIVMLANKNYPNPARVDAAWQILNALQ
SMILES,Potency,"activity change, negative = inhibition"
COc1ccc(OC)c(-c2csc(N(C)C(=O)c3ccco3)n2)c1,"inconclusive [inhibitor, partial curve, poor fit]",–
c1ccc(-c2ccccc2OCCN2CCCCC2)cc1,"inconclusive [inhibitor, full curve, poor fit]",–
Cc1ccc(C(=O)Nc2nnc(-c3ccncc3)s2)o1,"inconclusive [inhibitor, partial curve, poor fit]",–
Cc1ccc(S(=O)(=O)NC(=O)NC(C)(C)C)cc1,"inconclusive [inhibitor, full curve, poor fit]",–
CNC(=O)C1CCC(Cn2c(=O)c3sccc3n(CC(=O)NCc3ccccc3)c2=O)CC1 (stereo unspecified),–,inactive: 14.5%
COCCCNC(=O)c1oc2c(c1C)-c1nn(Cc3ccccc3Cl)cc1CC2,–,inactive: 22%
Cc1ccccc1C(=O)Nc1sc2c(c1C(=O)NCc1ccco1)CCC(C(C)(C)C)C2 (stereo unspecified),"inconclusive [inhibitor, single point]",–
COc1ccccc1CNc1nc(-c2ccco2)nn1S(=O)(=O)c1ccc2ccccc2c1,–,inactive: 2.92%
O=C(N/N=C/c1c(O)n(CCC2=CCCCC2)c(=S)[nH]c1=O)c1ccccc1,"inconclusive [inhibitor, full curve, poor fit]",–
CCCCc1ccc(NC(=S)NCCc2ccc(F)cc2)cc1,–,inactive: -0.288%
CCOC(=O)Cc1cn2c(=O)cc(CSCC(=O)Nc3ccc(C)c(C)c3)nc2s1,"inconclusive [inhibitor, full curve, poor fit]",–
O=S(=O)(c1ccc(Cl)cc1)N1CCN(Cc2ccc(O)c3ncccc23)CC1,–,inactive: -5.21%
CCOC(=O)N1CCC(NC(=O)c2ccc(OC)c(CN3CC(=O)N4CCCC4C3=O)c2)CC1 (stereo unspecified),"inconclusive [inhibitor, full curve, poor fit]",–
O=C(Cn1nnc(-c2cccc(C(F)(F)F)c2)n1)N1CCCCCC1,–,inactive: -1.2%
Cc1ccccc1C(=O)NC1CCN(CC(=O)NCc2ccccc2)CC1,"inconclusive [inhibitor, full curve, poor fit]",–
Cc1c(Cl)cccc1NC(=O)CCC(=O)N/N=C/c1ccco1,"inconclusive [inhibitor, full curve]",–
Cc1c(N=C2SCC(=O)N2c2c(C)n(C)n(-c3ccccc3)c2=O)c(=O)n(-c2ccccc2)n1C,"inconclusive [inhibitor, full curve, poor fit]",–
COCc1cc(CN2CCCC(C(=O)Nc3ccc(-c4ccco4)cc3)C2)ccc1OC (stereo unspecified),"inconclusive [inhibitor, full curve, poor fit]",–
CCOC(=O)Cc1csc(NC(=O)C(NC(=O)C2CCCCC2)C(C)C)n1 (stereo unspecified),"inconclusive [inhibitor, single point]",–
CC(C)c1ccc(/C=C/C(=O)Nc2ccc(CN3CCOCC3)cc2)cc1,–,inactive: -13.4%
Cn1c(N/N=C\c2cccc(O)c2)cc(=O)n(C)c1=O,"inconclusive [inhibitor, full curve, poor fit]",–

SMILES,Potency,"activity change, negative = inhibition"
Cc1cccc(C(=O)Nc2c(-c3ccccc3)nc3cc(C)ccn23)c1,"inconclusive [inhibitor, partial curve, poor fit]",–
O=C(CNC(=O)c1ccc(Cl)cc1Cl)NCC(=O)Nc1ccccc1N1CCOCC1,"inconclusive [inhibitor, full curve, poor fit]",–
Cc1ccc(C2C(=O)N(C3CCCC3)CC(=O)N2C2CCCCC2)cc1 (stereo unspecified),"inconclusive [inhibitor, full curve]",–
CC(C)OCCCn1c(=O)c2ccccc2n2c(-c3ccc(F)cc3)nnc12,–,inactive: 25.9%
O=C(O)c1cccc(NCc2ccncc2)c1,"inconclusive [inhibitor, full curve, poor fit]",–
Oc1ccc(-c2onc3ccc(Cl)cc23)cc1,"inconclusive [inhibitor, single point]",–
CCOc1ccccc1NC(=O)Cn1c(=O)n(CCC(=O)NC2CCCC2)c(=O)c2ccccc21,"inconclusive [inhibitor, partial curve, poor fit]",–
CCOc1cc2sc(N3CCC(C(=O)Nc4ccc(C)cc4C)CC3)nc2cc1Br,–,inactive: 23%
O=C(Nc1cc(C(=O)N2CCN(c3ccccc3O)CC2)ccc1Cl)c1cccs1,"inconclusive [inhibitor, single point]",–
COc1ccc(-c2nc3scc(CCNS(=O)(=O)c4ccc(C)cc4)n3n2)cc1,–,inactive: -1.19%
CCOC(=O)[C@@H]1[C@H]2COc3ccc(Br)cc3[C@@H]2N2C(=O)N(c3ccc(C(F)(F)F)cc3)C(=O)[C@@]12C,"inconclusive [inhibitor, partial curve, poor fit]",–
Cc1cccc(N2CCN(Cc3ccoc3)CC2)c1C,"inconclusive [inhibitor, partial curve, poor fit]",–
CCNc1nc(NCC)nc(OCCOC(C)=O)n1,–,inactive: -3.55%
O=C(CN1CCc2cc3c(cc2C1)OCCCO3)Nc1ccccc1,"inconclusive [inhibitor, full curve, poor fit]",–
Cc1cc(C(=O)N/N=C/c2ccc(OC(=O)c3ccccc3Br)cc2)n[nH]1,"inconclusive [inhibitor, single point]",–
CC(=O)Oc1ccc(C(=O)[C@H]2[C@H]3C(=O)N(c4ccc(C)cc4)C(=O)[C@H]3[C@@H]3C=CC=NN32)cc1,–,inactive: -9.44%
CCOC(=O)C1CCN(S(=O)(=O)c2cc(Br)cc3c2N(C(=O)CC)CC3)CC1,–,inactive: -0.0607%
CC(C)(C)OC(=O)NCc1nc(N)n[nH]1,"inconclusive [inhibitor, partial curve, poor fit]",–
CCOC(=O)CN(C(=O)CSc1nnc(-c2ccc(OC)c(OC)c2)o1)c1ccccc1,"inconclusive [inhibitor, full curve, poor fit]",–
Cc1cc2ccccc2c(=O)n1CC(=O)NCC1COc2ccccc2O1 (stereo unspecified),"inconclusive [inhibitor, partial curve, poor fit]",–
